From ChEMBL document CHEMBL1156829 come the findings set out here.

Structures are written as SMILES. In all, about 5,400 compounds were measured (“IFI”: median about 2, highest 2% from about 22 on). The list shows a part of the results.

The nature of this assay: NOVARTIS: Inhibition Frequency Index (IFI) - the number of HTS assays where a compound showed > 50% inhibition/induction, expressed as a percentage of the number of assays in which the compound was tested. The assay is classed as functional.
`Cc1cc(N2CCN(Cc3ccc(F)cc3)CC2)n2c(nc3ccccc32)c1C#N` showed an IFI of 1.18%.

`CCC(CO)Nc1nccnc1-c1ccccc1Oc1ccccc1` (stereo unspecified) registered an IFI of 0%. Consider `COc1cc(NCCCC(C)Nc2ccnc3cc4ccccc4cc23)c2ncccc2c1` (stereo unspecified), for which the IFI was found to be 0%. Consider `CC1=NNC(=O)C1C(c1ccc(Cl)cc1Cl)C1C(=O)NN=C1C` (stereo unspecified), for which the IFI was 0%.

`O=C1C2CN(C(=O)Nc3ccccc3)C(c3ccc(Cl)cc3)C2C(=O)N1c1ccccc1` (stereo unspecified): the IFI stood at 0%. In turn, `C[C@@H]1CCC[C@@H](C[C@H]2Cc3cc(O)cc(O)c3C(=O)O2)O1` gave an IFI of 1.79%. As for `Cc1ccc(Cn2c(N3CCC(C(=O)NCc4ccc(F)cc4)CC3)nc3ccccc32)cc1`, the figure is 2.7%; as for `COc1ccc2c(c1)N(C)/C(=C/c1cccc[n+]1C)S2`, 15.4%. Molecule `Cc1noc(C)c1S(=O)(=O)N(CC(C)C)C(C(=O)NC(CN1CCCC1)c1ccccc1)c1ccccc1` (stereo unspecified) registered an IFI of 1.98%. `CCOC(=O)COc1ccc(C2NC(=S)NC(C)=C2C(C)=O)cc1OC` (stereo unspecified) yielded an IFI of 0%. Turning to `O=S(=O)(/C=C/c1ccccc1)NCCCCNc1ccnc2cc(Cl)ccc12`, the IFI was 6.41%.

In turn, `CCCOc1ccc2c(c1)C(=NN=C(N)N)c1cc(OCCC)ccc1-2` had an IFI of 7.69%.

`CN(C)c1ccc(-c2cc(-c3ccccc3)[s+]c(-c3ccccc3)c2)cc1` returned an IFI of 31.4%.

As to `Cc1cccn2c(NCc3ccccc3)c(-c3ccccc3OC(=O)CCCCl)nc12`, the IFI came out at 3.81%. The result for `COc1ccc(C(NC(=O)c2cccnc2)c2cc(Cl)c3cccnc3c2O)cc1` (stereo unspecified) reads 7.69%. Take `CC1CCCN(C(=O)C2CCN(Cc3ccccn3)CC2)C1` (stereo unspecified): the IFI was 0%. With `Cc1ccc(C(=O)c2c(C)oc3ccc(O)cc23)cc1`, the IFI is 0%.

`O=S(=O)(c1ccc(Br)s1)N1CCN(c2ccccc2)CC1` returned an IFI of 0.794%. The result for `C1CCC(CN2CCc3nc(N4CCCCC4)sc3C2)CC1` reads 5.56%; that for `COc1cccc(C2(NC(=O)CCn3ccnc3-c3ccccc3)CCCC2)c1`, 0%.

On to `CC[n+]1c(/C=C/N(C)c2ccccc2)sc(-c2ccccc2)c1-c1ccccc1`, for which the IFI is 14.3%. As for `O=C(NCCCCNc1ccnc2cc(Cl)ccc12)c1ccc(Br)cc1`, the figure is 3.03%; as for `FC(F)(F)c1ccc(Nc2nnnc3ccccc23)cc1`, 2.44%; as for `COC(=O)C1=CNC=C(C(=O)OC)C1c1cc(OC)c(OC)c(OC)c1`, 2.38%. On to `O=C(NC1CC1)C1CCN(c2cccc3c2C(=O)N(C2CCCCCCC2)C3=O)CC1`, for which the IFI turned out to be 5.94%. The molecule `CCOC(=O)c1cnc2ccccc2c1Nc1ccc(OC)c(OC)c1` yielded an IFI of 14.3%. Molecule `CCOC(=O)c1c(C)n(-c2ccccc2)c2ccc(OC(=O)c3ccccc3NC(=O)C(C)C)cc12` yielded an IFI of 0%. Molecule `Clc1ccc(-c2cn3c([n+]2-c2ccccc2)CCC3)cc1` gave an IFI of 0%. The result for `CCOc1ccc2nc(C)cc(Nc3ccc(N(C)C)cc3)c2c1` reads 0%.

Regarding `Cc1cccc(C2Sc3ccccc3N=C3c4ccccc4C(=O)C32)c1` (stereo unspecified), the IFI turned out to be 0%. In turn, `N#Cc1cccc(/C=C/C(=O)O)c1` came in with an IFI of 0.952%.

For the molecule `Cc1nc2cc(-c3ccc(I)cc3)nn2c(O)c1C`, the IFI came out at 0%. The molecule `O=C(c1ccncc1)N1CCN(Cc2ccc3c(c2)OCO3)CC1` displayed an IFI of 0%.

Turning to `COc1ccccc1C(NC(=O)c1cc(OC)c(OC)c(OC)c1)c1cc(Cl)c2cccnc2c1O` (stereo unspecified), the IFI worked out at 4.17%. For `CCc1ccc2c(c1)C(c1ccncc1)=NNC(c1ccncc1)=N2`, the IFI is 1.85%. The result for `COCCNC(=S)N1CCN(S(=O)(=O)c2ccc([N+](=O)[O-])cc2)CC1` reads 0%; that for `CC(C)NCC(O)Cn1c2ccc(Br)cc2c2cc(Br)ccc21` (stereo unspecified), 3.19%.

`C(#Cc1ccccc1)C[N+]1(CCOc2ccccc2)CCCCC1` had an IFI of 5.56%. As for `CC(C)NC(=O)N1CCN(C(=O)C(Cc2c[nH]c3ccccc23)NC(=O)Nc2cccc(C#N)c2)CC1C` (stereo unspecified), the IFI amounted to 1.83%.

The molecule `Cc1cccc(C)c1N(CC(=O)NCc1ccco1)S(C)(=O)=O` returned an IFI of 0%.

In turn, `COc1ccccc1N1CCN(C(=O)CCCCSc2nnc3c4cc(F)ccc4n(Cc4ccc(F)cc4)c3n2)CC1` registered an IFI of 0.909%. The molecule `Oc1c(C(Nc2ccccn2)c2ccc(Cl)cc2Cl)ccc2cccnc12` (stereo unspecified) gave an IFI of 13.4%. Molecule `Cc1ccc(Nc2nc(NCc3ccccc3)c3ccccc3n2)cc1` displayed an IFI of 0%. `CCCCCCCCN[C@@H](C)[C@@H](O)c1ccc(SC(C)C)cc1`: the IFI turned out to be 1.35%. On to `Cc1nc2ccccc2c(=O)n1NC(=O)c1cccc([N+](=O)[O-])c1`, for which the IFI turned out to be 1.05%. Regarding `Cc1nccn1CC(C)C(=O)N1CCCC(n2nc(-c3cccs3)ccc2=O)C1` (stereo unspecified), the IFI is 0%. In turn, `CCN(CC)c1ccc(C=Cc2cc[n+](Cc3ccc(F)cc3)cc2)cc1` had an IFI of 16.8%.

In the case of `O=C(Cc1cccnc1)N1CCC(Oc2ccncc2)CC1`, the IFI was found to be 5.56%. `O=C1c2cccc(N3CCCC(C(=O)N4CCCCC4c4cccnc4)C3)c2C(=O)N1Cc1ccc(C(F)(F)F)cc1` (stereo unspecified) had an IFI of 6%.

`Cn1c(=O)c2c(nc3n2CC(O)CN3c2ccccc2)n(C)c1=O` (stereo unspecified) showed an IFI of 2.41%. Molecule `CN(C)CCCNc1ncnc2c1[nH]c1ccc(F)cc12` returned an IFI of 5.56%. `Cc1ccc(N2C(=O)c3sc4nnc(C)c(=O)n4c3C2=O)cc1` came in with an IFI of 0%. The molecule `CCC(CC)=NNC(=O)C(=O)NC1CCCCC1` had an IFI of 0%. In turn, `COc1cc(NC(C)CCCN(Cc2ccc(OC)c(OC)c2)C(=O)CC(C)CC(C)(C)C)c2ncccc2c1` (stereo unspecified) registered an IFI of 3.64%. `CCOC(=O)c1c(C)n(-c2ccccc2)c2ccc(O)cc12` registered an IFI of 2.54%. As for `Brc1cccc(CNC2CCN(CCc3ccccc3)CC2)c1`, the figure is 2.36%; as for `CCCCNC(=O)c1ccc2c(c1)N=C(c1cccc(OCC)c1)N(CCCN1CCCC1=O)C2`, 1.24%. Molecule `CCN(CC)CCCC(C)Nc1nc(/C=C/c2cc(OC)c(OC)cc2Cl)nc2cc(Cl)ccc12` (stereo unspecified) displayed an IFI of 0%. `COc1ccc(NC(=O)c2cc3cc(C4(O)CCN(CC5CC=CCC5)CC4)ccc3o2)cc1` (stereo unspecified) had an IFI of 2.54%. Take `Cc1cc(N2CCCC2)nc2ccc(NC(=S)NCCCN3CCN(Cc4ccccc4)CC3)cc12`: the IFI was 11.8%.

Regarding `CCOC(=O)C(=O)N1c2ccc(OC)cc2-c2c(ssc2=S)C1(C)C`, the IFI turned out to be 0%.

As for `COc1ccc(-c2noc(N3CCc4ccccc4C3)n2)cc1`, the IFI stood at 0%. As for `O=C(NC(CN1CCCC1)c1ccccc1)C1CCCCN1S(=O)(=O)c1ccccc1` (stereo unspecified), the figure is 2.91%.

`Cc1onc(-c2ccccc2Cl)c1C(=O)Nc1cc(Cl)ccc1Cl` returned an IFI of 1.15%. Molecule `CCCCCOC(=O)C1=C(C)NC2=C(C(=O)CC(C)(C)C2)C1c1ccncc1` (stereo unspecified) had an IFI of 2.38%.

The molecule `Cc1nc(-c2cnccc2C(F)(F)F)sc1C(=O)NN` registered an IFI of 0%.
